Laboratory results reported in patent publication US11178870B2 (priority 2017, dated 2021).

Experiments:
Phytophthora infestans = assay type: in vivo; conditions: Late blight on tomato
Magnaporthe grisea = assay type: in vivo; conditions: Blast on rice

CCn1c(-c2c(F)cc(F)cc2F)c(-c2oc(Br)nc2Br)cc(Br)c1=O [Compound 96]
Test F control value (Phytophthora infestans): L (L shows the control value of 50% or less) | Test A control value (Magnaporthe grisea): H (H shows the control value more than 50%)

CCn1c(-c2c(F)cc(F)cc2F)c(-n2cncn2)cc(Br)c1=O [Compound 47]
Test F control value (Phytophthora infestans): L (L shows the control value of 50% or less) | Test A control value (Magnaporthe grisea): L (L shows the control value of 50% or less)

CCn1c(-c2c(F)cccc2F)c(-c2cnc(N)o2)cc(Cl)c1=O [Compound 135]
Test F control value (Phytophthora infestans): L (L shows the control value of 50% or less) | Test A control value (Magnaporthe grisea): L (L shows the control value of 50% or less)

CCn1c(-c2c(F)cccc2F)c(-c2cnc(I)o2)cc(Cl)c1=O [Compound 92]
Test F control value (Phytophthora infestans): L (L shows the control value of 50% or less) | Test A control value (Magnaporthe grisea): L (L shows the control value of 50% or less)

CCn1c(-c2c(F)cc(F)cc2F)c(-n2ncc(C)c2Cl)ccc1=O [Compound 82]
Test F control value (Phytophthora infestans): L (L shows the control value of 50% or less) | Test A control value (Magnaporthe grisea): H (H shows the control value more than 50%)

CCn1c(-c2c(F)cc(OC)cc2F)c(-n2cc(Br)c(C)n2)cc(Br)c1=O [Compound 151]
Test F control value (Phytophthora infestans): L (L shows the control value of 50% or less) | Test A control value (Magnaporthe grisea): H (H shows the control value more than 50%)

CCn1c(-c2c(F)cc(F)cc2F)c(-c2nn(C)cc2C)cc(Cl)c1=O [Compound 19]
Test F control value (Phytophthora infestans): L (L shows the control value of 50% or less) | Test A control value (Magnaporthe grisea): H (H shows the control value more than 50%)

CCn1c(-c2c(F)cc(OC)cc2F)c(-c2c(Cl)cnn2C)cc(Cl)c1=O [Compound 29]
Test F control value (Phytophthora infestans): L (L shows the control value of 50% or less) | Test A control value (Magnaporthe grisea): H (H shows the control value more than 50%)

CCOC(=O)c1cncn1-c1cc(Cl)c(=O)n(CC)c1-c1c(F)cc(F)cc1F [Compound 129]
Test F control value (Phytophthora infestans): L (L shows the control value of 50% or less) | Test A control value (Magnaporthe grisea): H (H shows the control value more than 50%)

CCn1c(-c2ccc(F)cc2Cl)c(-c2ocnc2C)cc(Cl)c1=O [Compound 38]
Test F control value (Phytophthora infestans): L (L shows the control value of 50% or less) | Test A control value (Magnaporthe grisea): H (H shows the control value more than 50%)

CCn1c(-c2c(F)cc(F)cc2F)c(-n2cc(Br)c(C)n2)cc(Br)c1=O [Compound 147]
Test F control value (Phytophthora infestans): L (L shows the control value of 50% or less) | Test A control value (Magnaporthe grisea): H (H shows the control value more than 50%)

CCn1c(-c2c(F)cc(F)cc2F)c(-n2cccn2)cc(Cl)c1=O [Compound 84]
Test F control value (Phytophthora infestans): L (L shows the control value of 50% or less) | Test A control value (Magnaporthe grisea): H (H shows the control value more than 50%)

CCn1c(-c2c(F)cc(OC)cc2F)c(-c2cccnc2Cl)ccc1=O [Compound 79]
Test F control value (Phytophthora infestans): L (L shows the control value of 50% or less) | Test A control value (Magnaporthe grisea): H (H shows the control value more than 50%)

Cn1c(-c2c(F)cccc2F)c(-c2cccs2)ccc1=O [Compound 14]
Test F control value (Phytophthora infestans): L (L shows the control value of 50% or less) | Test A control value (Magnaporthe grisea): L (L shows the control value of 50% or less)

CCn1c(-c2c(F)cc(OC)cc2F)c(-n2cc(Cl)c(C)n2)cc(Cl)c1=O [Compound 143]
Test F control value (Phytophthora infestans): L (L shows the control value of 50% or less) | Test A control value (Magnaporthe grisea): L (L shows the control value of 50% or less)

CCn1c(-c2c(F)cc(F)cc2F)c(-n2cc(NC(C)=O)cn2)cc(Cl)c1=O [Compound 163]
Test F control value (Phytophthora infestans): L (L shows the control value of 50% or less) | Test A control value (Magnaporthe grisea): L (L shows the control value of 50% or less)

CCn1c(-c2c(F)cc(F)cc2F)c(-c2ocnc2Br)cc(Cl)c1=O [Compound 113]
Test F control value (Phytophthora infestans): L (L shows the control value of 50% or less) | Test A control value (Magnaporthe grisea): H (H shows the control value more than 50%)

CCn1c(-c2c(F)cc(F)cc2F)c(-n2cc(C)cn2)cc(C)c1=O [Compound 86]
Test F control value (Phytophthora infestans): L (L shows the control value of 50% or less) | Test A control value (Magnaporthe grisea): H (H shows the control value more than 50%)

CCn1c(-c2c(F)cccc2F)c(-n2cccn2)ccc1=O [Compound 31]
Test F control value (Phytophthora infestans): L (L shows the control value of 50% or less) | Test A control value (Magnaporthe grisea): L (L shows the control value of 50% or less)

CCn1c(-c2ccc(OC)cc2Cl)c(-n2cc(Cl)cn2)cc(Cl)c1=O [Compound 159]
Test F control value (Phytophthora infestans): L (L shows the control value of 50% or less) | Test A control value (Magnaporthe grisea): H (H shows the control value more than 50%)

CCn1c(-c2c(F)cc(F)cc2F)c(-n2cc(Br)c(C)n2)ccc1=O [Compound 108]
Test F control value (Phytophthora infestans): L (L shows the control value of 50% or less) | Test A control value (Magnaporthe grisea): H (H shows the control value more than 50%)

O=c1ccc(-c2cccnc2Cl)c(-c2c(F)cccc2F)n1CC(F)(F)F [Compound 58]
Test F control value (Phytophthora infestans): L (L shows the control value of 50% or less) | Test A control value (Magnaporthe grisea): H (H shows the control value more than 50%)

CCn1c(-c2ccc(F)cc2Cl)c(-n2cc(Cl)cn2)ccc1=O [Compound 156]
Test F control value (Phytophthora infestans): L (L shows the control value of 50% or less) | Test A control value (Magnaporthe grisea): H (H shows the control value more than 50%)

CN1C(=O)CCC(c2ccsc2)=C1c1c(F)cccc1F [Compound 3]
Test F control value (Phytophthora infestans): L (L shows the control value of 50% or less) | Test A control value (Magnaporthe grisea): H (H shows the control value more than 50%)

CCn1c(-c2c(F)cc(F)cc2F)c(-c2ocnc2Br)cc(Br)c1=O [Compound 97]
Test F control value (Phytophthora infestans): L (L shows the control value of 50% or less) | Test A control value (Magnaporthe grisea): H (H shows the control value more than 50%)

CCn1c(-c2c(F)cc(OC)cc2F)c(-c2ccnn2C)cc(Cl)c1=O [Compound 28]
Test F control value (Phytophthora infestans): L (L shows the control value of 50% or less) | Test A control value (Magnaporthe grisea): H (H shows the control value more than 50%)

CCn1c(-c2c(F)cc(OC)cc2F)c(-c2oc(Br)nc2Br)cc(Cl)c1=O [Compound 116]
Test F control value (Phytophthora infestans): H (H shows the control value more than 50%) | Test A control value (Magnaporthe grisea): H (H shows the control value more than 50%)

O=c1ccc(-c2cccnc2Cl)c(-c2c(F)cccc2F)n1CC(F)F [Compound 56]
Test F control value (Phytophthora infestans): L (L shows the control value of 50% or less) | Test A control value (Magnaporthe grisea): H (H shows the control value more than 50%)

CCn1c(-c2c(F)cccc2F)c(-c2ocnc2Br)cc(Cl)c1=O [Compound 49]
Test F control value (Phytophthora infestans): L (L shows the control value of 50% or less) | Test A control value (Magnaporthe grisea): H (H shows the control value more than 50%)

CCn1c(-c2ccc(OC)cc2Br)c(-n2cc(Cl)cn2)cc(Cl)c1=O [Compound 167]
Test F control value (Phytophthora infestans): L (L shows the control value of 50% or less) | Test A control value (Magnaporthe grisea): H (H shows the control value more than 50%)

CCn1c(-c2c(F)cccc2F)c(C2OCCO2)cc(Cl)c1=O [Compound 13]
Test F control value (Phytophthora infestans): L (L shows the control value of 50% or less) | Test A control value (Magnaporthe grisea): H (H shows the control value more than 50%)

CCn1c(-c2c(F)cccc2F)c(-c2ncc(OC)o2)cc(Cl)c1=O [Compound 162]
Test F control value (Phytophthora infestans): L (L shows the control value of 50% or less) | Test A control value (Magnaporthe grisea): L (L shows the control value of 50% or less)

Cn1c(-c2c(F)cccc2F)c(-c2cccnc2Cl)cc(Cl)c1=O [Compound 105]
Test A control value (Magnaporthe grisea): L (L shows the control value of 50% or less)
